Results on 42 compounds are retold here after ChEMBL document CHEMBL4888484, “Replenishing the malaria drug discovery pipeline: Screening and hit evaluation of the MMV Hit Generation Library 1 (HGL1) against asexual blood stage Plasmodium falciparum ,using a nano luciferase reporter read-out” (2022).

In all, about 150,000 compounds went through this assay and about 540 (0.36%) showed an effect of 50% or more. Some of the results follow.

The experiment concerns Plasmodium falciparum. Nature of the experiment: Primary screen in NF54 nanoGlo assay, in single point, at 2uM, 72h; a lower Z score goes with more inhibition. It is filed as functional, Erythrocyte. The conditions noted are these: timepoint 72 hour.
Consider `CCc1c(N[C@H]2CCN(C)C2=O)cnn1C(CC)CC`, for which the % Inhibition (as a rule, the change of the read-out against control, counted positive when it falls) amounted to 1% and the Z score is listed as -0.14.

With `COc1ccc(C(CC(=O)c2ccccc2)C2C(=O)CC3CCC2N3C)cc1` (centres undefined), the “% Inhibition” value amounted to 2% and the Z score is recorded as -0.24.

Consider `CN(C)Cc1csc(-c2nc3c(cnn3-c3ccccc3)[nH]2)c1`, for which the “% Inhibition” value is reported as 4% and the Z score was -0.69.

Consider `Cc1cnn(C2CCN(Cc3nc4ccccc4c(C)c3Cl)CC2)c1`, for which the “% Inhibition” value was -11% and the Z score is 2.16.

With `Cc1c(F)cccc1NC(=O)N1CCN(C2=CC3=N[C@@H](C)CN3C=N2)CC1`, the “% Inhibition” value turned out to be 57% and the Z score is -7.99.

On to `CCN(Cc1ccccc1)c1ncc(S(=O)(=O)c2cc(Cl)ccc2OC)c(N)n1`, for which the “% Inhibition” value is -6% and the Z score is 0.83.

For the compound `N#Cc1cccnc1N[C@H]1CCc2nnc(-c3ccccc3)n2C1`, the “% Inhibition” value was -7% and the Z score turned out to be 0.82.

Take `Cc1ccc(-c2nc(CC(=O)Nc3nccs3)cs2)o1`: the “% Inhibition” value is reported as 2% and the Z score is given as -0.14.

Consider `Cc1ccc(CCN(Cc2ccco2)C(=O)C2CCNCC2)cc1`, for which the “% Inhibition” value came to 10% and the Z score is on record as -1.36.

As for `Cc1nn(C)c2nc(-c3cccs3)cc(C(=O)N3CCN(Cc4ccccc4)CC3)c12`, the “% Inhibition” value came out at 32% and the Z score is on record as -3.62.

As for `CC(C)Oc1cccc(N(CC(=O)N2CC(=O)Nc3ccccc32)S(C)(=O)=O)c1`, the “% Inhibition” value stood at 1% and the Z score is recorded as -0.1.

Turning to `Cc1ccc2c(n1)OCCN2Cc1noc(C2CC2)n1`, the “% Inhibition” value is -10% and the Z score was found to be 0.84.

Regarding `CN1CCN(CC2(O)CCC3(CCN(C(=O)c4c(F)cccc4F)CC3)CC2)CC1`, the “% Inhibition” value is recorded as -4% and the Z score came out at 0.67.

As for `C#CCCC1(CCC(=O)N2c3ccncc3C[C@@H]2C)N=N1`, the “% Inhibition” value is -5% and the Z score is reported as 0.66.

On to `CCCCc1nc(N2CCCN(C(=O)Nc3ccc(C)cc3C)CC2)c2c(-c3ccccc3)noc2n1`, for which the “% Inhibition” value is on record as -6% and the Z score is recorded as 0.91.

With `O=C1NCC2(CN(C(=O)Cc3ccc(F)c(F)c3)C2)O1`, the “% Inhibition” value was -1% and the Z score was determined as 0.2.

In the case of `CCn1nccc1-c1nc(N)nc(C)c1Cl`, the “% Inhibition” value was -10% and the Z score is given as 1.06.

Consider `CCOc1ccc(S(=O)(=O)Nc2cc(C(=O)O)cnc2N2CCC(Cc3ccccc3)CC2)cc1`, for which the “% Inhibition” value was found to be 3% and the Z score is given as -0.26.

For `O=C(Cc1c(F)cccc1Cl)NC1CCC2OCCOC2C1` (centres undefined), the “% Inhibition” value is listed as -7% and the Z score was found to be 1.29.

`CCCc1cc(=O)[nH]c(C(=Cc2c(C3CC3)cnn2C)CC)n1`: the “% Inhibition” value was -25% and the Z score was found to be 4.77.

`COc1ccc(C2=NN(C(=O)CN(C)C(=O)c3cccc(F)c3)[C@H](c3ccc4c(c3)OCO4)C2)cc1`: the “% Inhibition” value was -14% and the Z score was 1.31.

`Cc1n[nH]c(C)c1CCC(=O)NCCS(=O)(=O)N(C)C`: the “% Inhibition” value amounted to 3% and the Z score is listed as -0.49.

As for `COC1(CNC(=O)N2CC[C@H](c3cnn(C)c3)C2)CCOCC1`, the “% Inhibition” value is recorded as 2% and the Z score is -0.28.

On to `CC(=O)NCc1ccc(N2CC[C@@]3(CCCN(CCC4CCCCC4)C3)C2)nc1`, for which the “% Inhibition” value is -1% and the Z score came out at 0.2.

For the compound `Fc1ccc2c(c1)CCN(Cc1cc[nH]n1)C2`, the “% Inhibition” value is reported as -6% and the Z score is 0.68.

Regarding `CC(C(=O)NC1CC=CCC1)C(F)(F)F` (centres undefined), the “% Inhibition” value was -4% and the Z score was determined as 0.75.

As for `Cc1c(-c2nc([C@H]3CCOC3)no2)[nH]c2ccccc12`, the “% Inhibition” value is on record as -7% and the Z score is 0.7.

For the compound `COc1ccccc1CNC(=O)[C@]1(C)Cn2cnc(C(=O)N3CCCC3)c2C(=O)N1C1CC1`, the “% Inhibition” value is -25% and the Z score was 2.53.

As to `O=C(C1CCC1c1ccc(F)cc1)N1CCCC(c2nc3ccc(F)cc3o2)C1` (centres undefined), the “% Inhibition” value is given as -10% and the Z score is reported as 1.06.

As to `COc1ccc(NC(=O)N/C=C/c2ccc(Cl)cc2)cc1`, the “% Inhibition” value worked out at 0% and the Z score is listed as -0.07.

In the case of `OC[C@@H]1[C@@H](Cc2ccnc(C3CC3)n2)[C@H](NCc2ccc(F)cc2)C[C@H]1O`, the “% Inhibition” value turned out to be 30% and the Z score is reported as -3.41.

As to `O=C1CN(C(=O)Cn2nnc3ccccc3c2=O)CCN1`, the “% Inhibition” value is given as -7% and the Z score worked out at 1.35.

On to `O=C(CNC(=O)C1(N2CCOCC2)CCC1)Nc1ccccc1`, for which the “% Inhibition” value is given as 1% and the Z score was -0.16.

Turning to `Cn1c(NC(=O)c2cccs2)c(-c2ccc3c(c2)OCO3)c(=O)c2ccccc21`, the “% Inhibition” value is -2% and the Z score was found to be 0.32.

Regarding `COCCN(CC(F)F)C(=O)Nc1ccccc1C(F)(F)F`, the “% Inhibition” value is -7% and the Z score was 0.74.

Take `COc1ccccc1C(=O)N1CCC2(CC1)C[C@@H](O)CCO2`: the “% Inhibition” value is recorded as -6% and the Z score amounted to 0.84.

As to `CC(C)C[C@H]1NC(=O)c2cc(F)ccc2OCCn2cc(nn2)CCN(C(=O)c2cccnc2)CCNC1=O`, the “% Inhibition” value is listed as -12% and the Z score came to 1.5.

`O=C(CCCOc1cccnc1)N1CCC[C@H]1c1ccc(F)c(F)c1`: the “% Inhibition” value is given as 0% and the Z score is given as -0.06.

For the compound `CCc1c(C(=O)N2CC[C@@](O)(C3CCOCC3)[C@H](C)C2)csc1C`, the “% Inhibition” value was -14% and the Z score is 1.19.

Consider `Cc1ncccc1CNC1(C(=O)NCC2CC2)CCCC1`, for which the “% Inhibition” value is given as -3% and the Z score was 0.26.

Take `CCN(C)C[C@H]1CCN(C(=O)c2ccc3[nH]ccc3c2)C1`: the “% Inhibition” value is recorded as 0% and the Z score is 0.02.

Consider `CC(C)c1csc([C@H]2CCCN(Cc3ccc(C(=O)O)c(Cl)c3)C2)n1`, for which the “% Inhibition” value is reported as 7% and the Z score is -0.81.
